Drawing on the RNAGym collection of RNA variant scans (doi:10.1101/gad.245936.114), this text covers nonsense suppression for 27 variants.

Variants at the floor of the assay are shown more often than the library holds them.

First the molecules themselves.
B1: tRNA (parent)
chain: CUCUCGGUAGCCAAGUUGGUUUAAGGCGCAAGACUUUAAUUUAUCACUACGAAAUCUUGAGAUCGGGCGUUCGACUCGCCCCCGGGAGAUUUUUUCCUCGAGCAA

This data set covers variants of B1. Kind of data set: nonsense suppression (GFP-seq) (ratio to wild type); higher = more function; SUP4oc tRNA, yeast GFP reporter sort-seq. The essentials: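 Sorted GFP/RFP bins of yeast were each Illumina-sequenced with a phred ≥30 cutoff; the cells held a genome-integrated ochre-suppressor tRNA variant from a library with ~3% random mutations, a galactose-driven GFP ochre reporter, and RFP. Culture was in raffinose/galactose medium containing 80 mg/L adenine. Nonsense suppression, termed GFPSEQ, is the median GFP/RFP of the bins weighted by each variant's estimated cell share per bin, relative to the unmutated parent tRNA, for variants reaching ≥100 reads and ≥30 cells.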
For UUCUCGGUAGCCAAGUUAGUUUAAGGCGCAAGACUUUAAUUUAUCACUACGAAAUCUUGAGGUCGGGCGUUCGACUCGCCCACGGGAGAUUUUUUCCUCGAGCAA [C1U G18A A62G C82A], the nonsense suppression is at most 0.026.

For the variant UUCUCGGUAGCCGGGUUGGUUUAAGGCGCAAGACUUUAAUUUAUCACUACGAAAUCCUGAGAUCGGGCGUUCGACUCGCCCCCGGGCGAUUUUUUCCUCGAGCAA [C1U A13G A14G U57C A87C], the nonsense suppression was at most 0.026.

As to CUCUCGGUAGCCAAGUUGGUUUAAGGCGCAAGACUUUAAUUUAUCACUACGAAACCUUGUGAACGGGCGUUCGACUCGCCCCCAGGUGAUUUUUUCCUCGAGCAA [U55C A60U U63A G84A A87U], the nonsense suppression was at most 0.026.

Turning to CUCCCGGUAGCCAAGUUGGUUUAAGGCGCAACACAUUAAUUUAUCACUACGAAAUCUUGAGAUCGGGCGUUCGACUCGCCCCCGGGAGAUUUUUUCCUCGAGCAA [U4C G32C U35A], the nonsense suppression was at most 0.026.

Consider CUCUCGCUAGCCAAGUUGGUUUAAGGCGCAGGACUUUAAUUUAUCACUACGAAAUCUUGAGAUCGGGCGUUCGACUAGCCCCCGGGAGAUUUUUUCCUCGAGCAA [G7C A31G C77A], for which the nonsense suppression was at most 0.026.

Turning to UUCUCGGUAGCCAAGUUGGUUCAAGGCGCAAGACUUUAAUUUAUCACUACGAAAUCUUGAGAUCGGGCGUUCGACUCGCCCCCGGGAGAUUUUUUCCUCGAGCAA [C1U U22C], the nonsense suppression is at most 0.026.

For the variant CUCUCGGGAGCAAAGUUGGUUUAAGGCGCAAGACUUUAAUUUAUCACUACGAAAUCUUGAGAUCGGGCGUUCGACUCGCCUCCGGGAGAUUUUUUCCUCGAGCAA [U8G C12A C81U], the nonsense suppression was at most 0.026.

For CUCUCGGUAGCCAAGUUGGUUUAAGGCGCAAGACUUUAAUUUAUCACUACGAAAUCUUGAGAUCGGGCGGUCUACUCGCCCCCGGGGGAUUUUUUCCUCGAGCAA [U70G G73U A87G], the nonsense suppression is at most 0.026.

Consider CUCUCGGUAUCCAUGUUGGUUUAACGCGCAAGACUUUAAUUUAUCACUACGAAAUCUUGAGAUCGGGCGUUCGACUCGCCCCCGGGAGAUUUUUUCCUCGAGCAA [G10U A14U G25C], for which the nonsense suppression is at most 0.026.

As to CUCUCGGUAGCCAAGUUGGUUUAAGCCGCUAGACUUUAAUUUAUCACUACGAAAUCUUGAGAUCGGGCGUUCGACUCGCCCCCGAGAGAUUUUUUCCUCGAGCAA [G26C A30U G85A], the nonsense suppression is at most 0.026.

As for CUCUCGGUAGCCAAGUUGGUUUAAGGCUGAAGACUUUAAUUUAUCACUACGAAAUCUUGACAUCGGGCGUUCGACUCGCCCCCGUGAGAUUUUUUCCUCGAGCAA [G28U C29G G61C G85U], the nonsense suppression was at most 0.026.

As for CUCUCGGUAGCCAAGUUUGUUUAAGGCGCAAGUCUUUAAUUUAUCACUACGAAAUCUUGAGAUCGGGCGUUCGACUCGCCCUCGGGAGCUUUUUUCCUCGAGCAA [G18U A33U C82U A89C], the nonsense suppression is at most 0.026.

For the variant CUCUCGGUAGACAAGUUGGUUUAAGCCGCAAGACUUUAAUUUAUCACUACGAAAUCUUGAGAUCGUGCGUUCGACUCGCCCCCGGGAGAUUUUUUCCUCGAGCAA [C11A G26C G66U], the nonsense suppression is at most 0.026.

In the case of CGCUCGGUAGCCAAGUUGGUUUAAGGCGCAAGACUUUAAUUUAUCACUACGAAAUCCUGCGAUCGGGCGUUCGACUCGCCCCCGGGAGAUUUUUUCCUCGAGCAA [U2G U57C A60C], the nonsense suppression is at most 0.026.

CUCUCGGUAUCCAAGUUGGUUUAAGGCGCAAGACUUUAAUUUAUCACUACGAAAUCUUAAGAUCGGGCGUUCGACUCGCCCCCGGGAGAUUUUUUCCUCGAGCAA [G10U G59A]: the nonsense suppression is at most 0.026.

As for CUCUCGGUAGCCAAGUUGGUUUAAGGCUCAAGACUUUAAUUUAUCACUACGAAAUCUUGAGAUAGGGCGUUCGACUCGCCCCCGGGAGAUUUUUUCCUCGAGCAA [G28U C64A], the nonsense suppression was at most 0.026.

Turning to CUACCGGUACCCAAGUUGGUUUAAGGCGCCAGACUUUAAUUUAUCACUACGAAAUCUUGAGAUCGGGCGUUCGACUCGCCCCCGGGAGAUUUUUUCCUCGAGCAA [C3A U4C G10C A30C], the nonsense suppression is at most 0.026.

Turning to CUCUCGGUAGCCAAGUUGGUUUAAGGCGCAAGACUUUAAUUUAUCACUACGAAAUCUUGAGGUCGGGCGUACGACUCGCCCCCGGGAGAUUUUUUCCUCGAGCAA [A62G U71A], the nonsense suppression is at most 0.026.

Consider CUCUCGGUAGCCUAGUUGGUUUAAGGCGCAAGACUUUAAUUUAUCACUACGAAAUCUUGAGAUCGGGCGUUCGACCCGCCCCCGGGAGAUUUUUUCCUCGAGCAA [A13U U76C], for which the nonsense suppression was 0.836.

Consider CUCUCGGUAGCCCAGUUGGUUUAAGGGGCAAGACUUUAAUUUAUCACUACGAAAUCUUGAGAUCGGGCAUUCGACUCGCCCCCGGUAGCUUUUUUCCUCGAGCAA [A13C C27G G69A G86U A89C], for which the nonsense suppression was at most 0.026.

In the case of CUCUCGGUAGCCAAGUUCGUUUAAGGCGCCAGACUUUAAUUUAUCACUACGAAAUCUUGAGAUCGGGCGUUCGACUCGCCCCCGGCAGAUUUUUUCCUCGAGCAA [G18C A30C G86C], the nonsense suppression was at most 0.026.

Take CUCUCGGUAGCCAAAUUGGUUUAAGGCGCAAGGCUUUAAUUUAUCACUACGAAAUCUUGACAUCGGGCGUUCGACUCGCCCCCGGGAGAUUUUUUCCUCGAGCAA [G15A A33G G61C]: the nonsense suppression was at most 0.026.

CUCUCGGUAGCCAAGUUGGUUUAACGGGCAAGACUUUAAUUUAUCACUACGAAAUCUUGAGAUCGGGCGUUCGACUCGCCCCCGGGAGAUUUUUUCCUCGAGCAA [G25C C27G]: the nonsense suppression was at most 0.026.

In the case of CUCUCGGUAGCCAAGUUGGUUUAAGGCGCAAGACUUUAAUUUAUCACUACGAAAUCUUGAGUUCGGGCGUCCGACUGGCCCCCGGGAGAUUUUUUCCUCGAGCAA [A62U U71C C77G], the nonsense suppression is at most 0.026.

CUCUCGGUAGCCAAGUUGCUUUAAGGCGCAAGACUUUAAUUUAUCACUACGAAAUCUUGAGAUCGGGGGUUCGACUCGCCCCCGGGAGAUUUUUUCCUCGAGCAA [G19C C68G]: the nonsense suppression is at most 0.026.

CUCUCGGUGGCCAAGUAGGUUUAAGGUGCAAUACUUUAAUUUAUCACUACGAAAUCAUGAGAUCGGGCGUUCGACUCGCCCCCGGGAGAUUUUUUCCUCGAGCAA [A9G U17A C27U G32U U57A]: the nonsense suppression was at most 0.026.

As to CUCUUGGUAGCCAAGUUGGUAUAAGGCGCAAGACUUUAAUUUAUCACUACGAAAUCCUGAGGUCGGGCGUUCGACUCGCCCCCGGGAGAUUUUUUCCUCGAGCAA [C5U U21A U57C A62G], the nonsense suppression was at most 0.026.
